Source: the DeepSol protein solubility set

Assay: soluble on expression in E. coli; label from the status in PepcDB or PDB records

Row | Sequence | soluble on expression in E. coli
1 | GNTPYVTKDLLQAKRFQAQTLGTTYIYDFPEMFRQALFKLWGSPDKYPKDILTYTELVLDSQGQLVEMNRLPGGNEVGMVAFKMRFKTQEYPEGRDVIVIGNDITFRIGSFGPGEDLLYLRASEMARAEGIPKIYVAANSGARIGMAEEIKHMFHVAWVDPEDPHKGFKYLYLTPQDYTRISSLNSVHCKHIEEGGESRYMITDIIGKDDGLGVENLRGSGMIAGESSLAYEEIVTISLVTCRAIGIGAYLVRLGQRVIQVENSHIILTGASALNKVLGREVYTSNNQLGGVQIMHYNGVSHITVPDDFEGVYTILEWLSYMPKDNHSPVPIITPTDPIDREIEFLPSRAPYDPRWMLAGRPHPTLKGTWQSGFFDHGSFKEIMAPWAQTVVTGRARLGGIPVGVIAVETRTVEVAVPADPANLDSEAKIIQQAGQVWFPDSAYKTAQAIKDFNREKLPLMIFANWRGFSGGMKDMYDQVLKFGAYIVDGLRQYKQPILIYIPPYAELRGGSWVVIDATINPLCIEMYADKESRGGVLEPEGTVEIKFRKKDLIKSMRRIDPAYKKLMEQLGEPDLSDKDRKDLEGRLKAREDLLLPIYHQVAVQFADFHDTPGRMLEKGVISDILEWKTARTFLYWRLRRLLLEDQVKQEILQASGELSHVHIQSMLRRWFVETEGAVKAYLWDNNQVVVQWLEQHWQAGDGPRSTIRENITYLKHDSVLKTIRGLVEENPEVAVDCVIYLSQHISPAERAQVVHLLSE | soluble
2 | KMEYEITNYSERHTELPGHFIGLNTVDKLEESPLRDFVKSHGGHTVISKILIANNGIAAVKEIRSVRKWAYETFGDDRTVQFVAMATPEDLEANAEYIRMADQYIEVPGGTNNNNYANVDLIVDIAERADVDAVWAGWGHASENPLLPEKLSQSKRKVIFIGPPGNAMRSLGDKISSTIVAQSAKVPCIPWSGTGVDTVHVDEKTGLVSVDDDIYQKGCCTSPEDGLQKAKRIGFPVMIKASEGGGGKGIRQVEREEDFIALYHQAANEIPGSPIFIMKLAGRARHLEVQLLADQYGTNISLFGRDCSVQRRHQKIIEEAPVTIAKAETFHEMEKAAVRLGKLVGYVSAGTVEYLYSHDDGKFYFLELNPRLQVEHPTTEMVSGVNLPAAQLQIAMGIPMHRISDIRTLYGMNPHSASEIDFEFKTQDATKKQRRPIPKGHCTACRITSEDPNDGFKPSGGTLHELNFRSSSNVWGYFSVGNNGNIHSFSDSQFGHIFAFGENRQASRKHMVVALKELSIRGDFRTTVEYLIKLLETEDFEDNTITTGWLDDLI | soluble
3 | MAQGQRKFQAQKPKSKAAAAERSRGPRKGGRVIAPKKARVVQQQKLKKSLEVGIRKKIEHDVVMKASSSLPKRLALLKGASKKSEATIPGKTPS | not soluble
4 | MKPMYRSRSWRRKYVRTPGGRVVIHFERKKPKIAHCAMCGRPLNGIPRGRPVEMRKLPKTKKRPERPMPHLCPRCMRKVMKEQIRAQLSLEHHHHHH | soluble
5 | MKRTGPTDPNLRRLIRFLKKKSNEEGVKIWKDLAWRLERPRRQRAEVNVSKINRYAKDGDMIVVPGSVLGAGKLEKKVIVAAWKFSETARKKITEAGGEAITIEELIERNPKGSGVIIME | soluble
6 | MKTNDVRVDTKLNKFIWSKGIKNVPYRVRVRLSRRRNEDEDSAQKLYTLCTYVPCTNFHGLTNVNVDSEE | not soluble
7 | MPAFHSEIEDFQASVGNMALLPLRTQVRGPAPTVDIPNDIIDESLYFWKSNIFFRTYEVKSEVDRVLIYITLYITECLKRLARCTSKSQGQQELYTLAISRFDIPGDAGFPLNGIYTKPEDPELMRQYFLQLRQETGNRLLEKVFDTPDGKPSKWWICFAKKKFMEKSLSGPGMLEHHHHHH | not soluble
8 | SSFPGMPKWRKTHLTYRIVNYTPDLPRDAVDSAIEKALKVWEEVTPLTFSRLYEGEADIMISFAVKEHGDFYSFDGPGHSLAHAYPPGPGLYGDIHFDDDEKWTEDASGTNLFLVAAHELGHSLGLFHSANTEALMYPLYNSFTELAQFRLSQDDVNGIQSLYGPPPASTEEPLVPTKSVPSGSEMPAKCDPALSFDAISTLRGEYLFFKDRYFWRRSHWNPEPEFHLISAFWPSLPSYLDAAYEVNSRDTVFIFKGNEFWAIRGNEVQAGYPRGIHTLGFPPTIRKIDAAVSDKEKKKTYFFAADKYWRFDENSQSMEQGFPRLIADDFPGVEPKVDAVLQAFGFFYFFSGSSQFEFDPNARMVTHILKSNSWLHC | soluble
